Test results: the supplement of paper PMC4967469
IC50 is the fitted dose that halves viability relative to control wells, and lower means more sensitive; fits outside the tested doses are given as limits. AUC is the area under the same curve over the 256-fold range up to the top dose, as a fraction; it is 1 without any effect and falls as sensitivity rises. For some of these results: Any top dose called inferred comes from the curve model; the source does not state it.

Columns and labels:
Assay in all cases: Viability of human cancer cell lines after 72 h of drug (GDSC screen)
IOX2 = compound: O=C(O)CNC(=O)c1c(O)c2ccccc2n(Cc2ccccc2)c1=O [IOX2]; conditions: top dose 0.1 µM; top dose inferred
Protocol: (§1)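 Human cancer cell lines in 384-well plates, medium with 10% serum, drug for 72 h over a 256-fold dose range (nine 2-fold or five 4-fold steps up to the top dose). Adherent lines were fixed and stained with the nucleic acid dye Syto60, suspension lines read with resazurin; signal relative to control wells, capped at 0 and 100%. One two-parameter sigmoid per drug and line, fitted in a mixed model over all curves with the slope shared within a line.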

Mitomycin C = compound: CO[C@@]12[C@H](COC(N)=O)C3=C(C(=O)C(C)=C(N)C3=O)N1C[C@@H]1N[C@@H]12 [Mitomycin C]; conditions: top dose 16 µM
Protocol: as §1

Bosutinib = compound: COc1cc(Nc2c(C#N)cnc3cc(OCCCN4CCN(C)CC4)c(OC)cc23)c(Cl)cc1Cl [Bosutinib]; conditions: top dose 2 µM
Protocol: as §1

Midostaurin = compound: CO[C@@H]1[C@H](N(C)C(=O)c2ccccc2)C[C@H]2O[C@]1(C)n1c3ccccc3c3c4c(c5c6ccccc6n2c5c31)C(=O)NC4 [Midostaurin]; conditions: top dose 0.512 µM; top dose inferred
Protocol: as §1

NVP-BHG712 = compound: Cc1ccc(C(=O)Nc2cccc(C(F)(F)F)c2)cc1Nc1nc(-c2cccnc2)nc2c1cnn2C [NVP-BHG712]; conditions: top dose 10.24 µM; top dose inferred
Protocol: as §1

Roscovitine = compound: CC[C@H](CO)Nc1nc(NCc2ccccc2)c2ncn(C(C)C)c2n1 [Roscovitine]; conditions: top dose 16 µM; top dose inferred
Protocol: as §1

Cell Line	AUC (IOX2)	IC50 (IOX2)	AUC (Mitomycin C)	IC50 (Mitomycin C)	AUC (Bosutinib)	IC50 (Bosutinib)	AUC (Midostaurin)	IC50 (Midostaurin)	AUC (NVP-BHG712)	IC50 (NVP-BHG712)	AUC (Roscovitine)	IC50 (Roscovitine)
QIMR-WIL (acute myeloid leukaemia, suspension)	0.984	> 100 nM	0.201	135 nM	0.819	1100 nM	0.866	433 nM	0.816	5460 nM	0.915	> 16000 nM
D-263MG (glioma, adherent)	0.961	> 100 nM	0.401	505 nM	0.973	> 2000 nM	0.829	413 nM	0.983	> 10200 nM	0.929	> 16000 nM
LU-134-A (small cell lung carcinoma, suspension)	0.982	> 100 nM	0.173	93.7 nM	0.983	> 2000 nM	0.925	> 512 nM	0.958	> 10200 nM	0.959	> 16000 nM
ALL-SIL (T-cell leukaemia, suspension)	0.987	> 100 nM	0.11	71.8 nM	0.687	383 nM	0.812	228 nM	0.057	< 40 nM	0.984	> 16000 nM
NOS-1 (osteosarcoma, adherent)	0.971	> 100 nM	0.566	1580 nM	0.866	> 2000 nM	0.842	486 nM	0.748	3960 nM	0.868	> 16000 nM
GI-ME-N (neuroblastoma, adherent)	0.969	> 100 nM	0.524	1190 nM	0.9	> 2000 nM	0.729	185 nM	0.796	6890 nM	0.884	> 16000 nM
RF-48 (stomach, adherent)	0.984	> 100 nM	0.307	267 nM	0.949	> 2000 nM	0.927	> 512 nM	0.71	2720 nM	0.923	> 16000 nM
GRANTA-519 (B-cell lymphoma, suspension)	0.989	> 100 nM	0.259	223 nM	0.868	1520 nM	0.961	> 512 nM	0.941	> 10200 nM	0.987	> 16000 nM
CTB-1 (B-cell lymphoma, suspension)	0.976	> 100 nM	0.35	328 nM	0.758	935 nM	0.938	> 512 nM	0.621	1550 nM	0.958	> 16000 nM
Mo-T (hairy cell leukaemia, suspension)	0.984	> 100 nM	0.755	5530 nM	0.902	> 2000 nM	0.987	> 512 nM	0.973	> 10200 nM	0.983	> 16000 nM
A4-Fuk (B-cell lymphoma, suspension)	0.984	> 100 nM	0.278	–	0.753	695 nM	0.854	433 nM	0.917	> 10200 nM	0.885	> 16000 nM
ALL-PO (lymphoblastic leukaemia, suspension)	0.982	> 100 nM	0.125	< 62.5 nM	0.859	1810 nM	0.732	154 nM	0.759	3760 nM	0.942	> 16000 nM
COLO-824 (breast, adherent)	0.987	> 100 nM	0.548	1360 nM	0.988	> 2000 nM	0.954	> 512 nM	0.959	> 10200 nM	0.986	> 16000 nM
GB-1 (glioma, adherent)	0.98	> 100 nM	0.422	587 nM	0.948	> 2000 nM	0.881	> 512 nM	0.83	8070 nM	0.929	> 16000 nM
TE-5 (oesophagus, adherent)	0.973	> 100 nM	0.246	164 nM	0.976	> 2000 nM	0.972	> 512 nM	0.975	> 10200 nM	0.907	> 16000 nM
NCI-H1869 (lung squamous cell carcinoma, adherent)	0.97	> 100 nM	0.617	2190 nM	0.846	1750 nM	0.96	> 512 nM	0.981	> 10200 nM	0.864	> 16000 nM
BE-13 (lymphoblastic leukaemia, suspension)	0.983	> 100 nM	0.084	< 62.5 nM	0.724	514 nM	0.896	> 512 nM	0.362	273 nM	0.977	> 16000 nM
OCI-M1 (acute myeloid leukaemia, suspension)	0.994	> 100 nM	0.448	746 nM	0.992	> 2000 nM	0.984	> 512 nM	0.889	6900 nM	0.988	> 16000 nM
L-428 (Hodgkin lymphoma, suspension)	0.987	> 100 nM	0.544	1300 nM	0.954	> 2000 nM	0.972	> 512 nM	0.993	> 10200 nM	0.984	> 16000 nM
no-10 (glioma, adherent)	0.971	> 100 nM	0.352	353 nM	0.983	> 2000 nM	0.965	> 512 nM	0.979	> 10200 nM	0.907	> 16000 nM
MN-60 (B-cell leukaemia, suspension)	0.986	> 100 nM	0.537	–	0.982	> 2000 nM	0.931	> 512 nM	0.922	> 10200 nM	0.964	> 16000 nM
Farage (B-cell lymphoma, suspension)	0.969	> 100 nM	0.267	252 nM	0.772	639 nM	0.962	> 512 nM	0.323	228 nM	0.938	> 16000 nM
